Values marked as one replicate rest on one cluster of the flow cell; about a third of the high ones do not repeat.
These sequences were tested on ATP (assay: switch fluorescence ratio, 500 uM ATP over buffer (Cy3 cluster intensity, sum of 5 cycles each) (fold (ratio)); higher = stronger signal-on switching upon ATP binding; sequences stand for … in TCGTCGGCAGCGTCAGATGTGTATAAGAGACAGTTTTTTTTTTTTTTTTTTTTTTTTT…TC). Conditions: aptamer strand: ATP DNA aptamer (quencher-CACCTGGGGGAGTATTGCGGAGGAAGG + anchor), 100 nM annealed; ATP concentration: 500 uM; one replicate.
In short: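 After annealing to 100 nM quencher-labelled ATP aptamer, Cy3-labelled switching-strand clusters on a modified Illumina MiSeq flow-cell were imaged in selection buffer. A second image followed after 15 min with 500 uM ATP at 22 °C, and five such buffer/ATP cycles were done, each separated by NaOH stripping and re-annealing. The fluorescence ratio, averaged per switch-domain sequence, is summed target-cycle over summed buffer-cycle Cy3 intensity per cluster, with clusters outside 100-1000 RFU excluded.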
Sequence AACGGCTCTG has a switch fluorescence ratio of 0.975.
In the case of AACGGGCGGT, the switch fluorescence ratio is reported as 1.02.
Sequence AACGGGGCGA has a switch fluorescence ratio of 0.985.
For AACGGGGGT, the switch fluorescence ratio was 1.02.
AACGGGTAGG gave a switch fluorescence ratio of 0.961.
Work on AACGGGTGAT yielded a switch fluorescence ratio of 1.09.
AACGGTGGGA was tested, and the switch fluorescence ratio was 1.
Sequence AACGTAGAGC has a switch fluorescence ratio of 0.964.
Sequence AACGTATGCA has a switch fluorescence ratio of 1.04.
In the case of AACGTGTTCG, the switch fluorescence ratio is reported as 1.03.
In the case of AACGTTAACT, the switch fluorescence ratio is reported as 0.985.
AACGTTCATC was tested, and the switch fluorescence ratio was 1.16.
With AACTAAAGAG the switch fluorescence ratio was 0.97.
Work on AACTAAGCCT yielded a switch fluorescence ratio of 1.04.
For AACTAAGGTT, the switch fluorescence ratio was 0.994.
AACTACAAAT gave a switch fluorescence ratio of 1.03.
Work on AACTACACAG yielded a switch fluorescence ratio of 1.13.
AACTACGTTT showed a switch fluorescence ratio of 0.992.
AACTAGGAG was tested, and the switch fluorescence ratio was 0.936.
For AACTAGTTA, the switch fluorescence ratio was 1.02.
Work on AACTCACAAC yielded a switch fluorescence ratio of 1.18.
For AACTCGCG, the switch fluorescence ratio was 0.996.
AACTCGGCTG was tested, and the switch fluorescence ratio was 0.969.
Sequence AACTCGTAAA has a switch fluorescence ratio of 0.982.
Work on AACTGAAATC yielded a switch fluorescence ratio of 1.04.
With AACTGAATGC the switch fluorescence ratio was 1.06.
AACTGCACGC showed a switch fluorescence ratio of 1.4.
AACTGCCGGC was tested, and the switch fluorescence ratio was 1.13.
AACTGCCGTT showed a switch fluorescence ratio of 1.02.
Sequence AACTGCCTTC has a switch fluorescence ratio of 1.07.
With AACTGGCCAT the switch fluorescence ratio was 1.04.
With AACTGTATTA the switch fluorescence ratio was 1.07.
In the case of AACTGTCCGA, the switch fluorescence ratio is reported as 1.11.
AACTTAAGTA showed a switch fluorescence ratio of 1.07.
AACTTACCCA was tested, and the switch fluorescence ratio was 1.18.
AACTTATTC showed a switch fluorescence ratio of 1.02.
AACTTCCAGA gave a switch fluorescence ratio of 1.02.
In the case of AACTTCGGTA, the switch fluorescence ratio is reported as 1.
AACTTGACAG showed a switch fluorescence ratio of 1.05.
In the case of AACTTGCCCC, the switch fluorescence ratio is reported as 1.04.
With AACTTGGCCT the switch fluorescence ratio was 1.04.
AACTTTACGG was tested, and the switch fluorescence ratio was 1.23.
For AACTTTAGCT, the switch fluorescence ratio was 1.02.
AACTTTTGGG showed a switch fluorescence ratio of 0.982.
Work on AAGAAATCAT yielded a switch fluorescence ratio of 0.981.
AAGAACACGT gave a switch fluorescence ratio of 0.984.
AAGAAGCGTC was tested, and the switch fluorescence ratio was 1.16.
For AAGAAGGCCC, the switch fluorescence ratio was 1.07.
AAGAATAGAG gave a switch fluorescence ratio of 0.979.
In the case of AAGAATCTAA, the switch fluorescence ratio is reported as 0.962.
With AAGAATGGCA the switch fluorescence ratio was 1.
For AAGAATGT, the switch fluorescence ratio was 1.06.
Sequence AAGACACGTT has a switch fluorescence ratio of 0.973.
AAGAGAAGGG gave a switch fluorescence ratio of 0.942.
Work on AAGAGAATGT yielded a switch fluorescence ratio of 0.961.
AAGAGAATTA was tested, and the switch fluorescence ratio was 1.02.
In the case of AAGAGATGAC, the switch fluorescence ratio is reported as 0.963.
AAGAGATGTT showed a switch fluorescence ratio of 0.955.
In the case of AAGAGCACAC, the switch fluorescence ratio is reported as 1.11.
In the case of AAGAGCGTAA, the switch fluorescence ratio is reported as 1.01.
AAGAGCTAAC showed a switch fluorescence ratio of 1.06.
For AAGAGTCTGA, the switch fluorescence ratio was 1.01.
With AAGAGTGGAA the switch fluorescence ratio was 1.01.
Work on AAGAGTTTAC yielded a switch fluorescence ratio of 0.968.
For AAGATAAGGT, the switch fluorescence ratio was 1.01.
AAGATAGCTT gave a switch fluorescence ratio of 1.01.
In the case of AAGATATAA, the switch fluorescence ratio is reported as 1.02.
AAGATATACA was tested, and the switch fluorescence ratio was 1.02.
Work on AAGATATCCC yielded a switch fluorescence ratio of 1.03.
For AAGATGAAAA, the switch fluorescence ratio was 1.03.
With AAGATGAGTG the switch fluorescence ratio was 0.947.
AAGATGCCCA gave a switch fluorescence ratio of 1.02.
In the case of AAGATGGGCT, the switch fluorescence ratio is reported as 1.
AAGATTACGG gave a switch fluorescence ratio of 1.18.
For AAGATTGAG, the switch fluorescence ratio was 1.01.
Work on AAGATTTCCG yielded a switch fluorescence ratio of 0.969.
Work on AAGCAAGTCG yielded a switch fluorescence ratio of 1.07.
Sequence AAGCACCATT has a switch fluorescence ratio of 1.16.
Sequence AAGCCGCGTC has a switch fluorescence ratio of 3.55.
AAGCCGTGTA gave a switch fluorescence ratio of 1.04.
AAGCCTGATA was tested, and the switch fluorescence ratio was 1.
AAGCCTTCGT gave a switch fluorescence ratio of 1.46.
For AAGCGAACTA, the switch fluorescence ratio was 1.03.
Work on AAGCGAAGCT yielded a switch fluorescence ratio of 0.973.
For AAGCGAATTA, the switch fluorescence ratio was 1.01.
AAGCGAGCTA gave a switch fluorescence ratio of 1.02.
AAGCGGACCA showed a switch fluorescence ratio of 1.02.
With AAGCGGGGGA the switch fluorescence ratio was 1.04.
Sequence AAGCGTAAGA has a switch fluorescence ratio of 1.03.
AAGCGTACGT was tested, and the switch fluorescence ratio was 0.976.
Sequence AAGCTACTC has a switch fluorescence ratio of 1.74.
AAGCTAGAGT gave a switch fluorescence ratio of 1.
For AAGCTAGCC, the switch fluorescence ratio was 1.08.
For AAGCTATACT, the switch fluorescence ratio was 3.99.
In the case of AAGCTGATGT, the switch fluorescence ratio is reported as 1.03.
Sequence AAGCTGGATG has a switch fluorescence ratio of 0.994.
AAGCTTCGTG was tested, and the switch fluorescence ratio was 1.06.
AAGGAAAGTA was tested, and the switch fluorescence ratio was 0.957.
Sequence AAGGAAGAGT has a switch fluorescence ratio of 1.05.
AAGGACAAGC gave a switch fluorescence ratio of 1.02.
For AAGGACGAGA, the switch fluorescence ratio was 1.02.
With AAGGAGAAAG the switch fluorescence ratio was 1.21.
Work on AAGGAGAAGG yielded a switch fluorescence ratio of 1.08.
For AAGGAGACAC, the switch fluorescence ratio was 1.
With AAGGAGCAGG the switch fluorescence ratio was 1.14.
In the case of AAGGAGTCTT, the switch fluorescence ratio is reported as 1.
With AAGGATCCAT the switch fluorescence ratio was 0.984.
Work on AAGGATCGCT yielded a switch fluorescence ratio of 1.01.
With AAGGCAAA the switch fluorescence ratio was 1.02.
AAGGCAGCAT gave a switch fluorescence ratio of 1.01.
For AAGGCATCTA, the switch fluorescence ratio was 1.01.
Work on AAGGCCATTT yielded a switch fluorescence ratio of 0.959.
With AAGGCCTGCC the switch fluorescence ratio was 1.04.
With AAGGCCTTGC the switch fluorescence ratio was 1.05.
Sequence AAGGCTACTC has a switch fluorescence ratio of 1.16.
With AAGGGAAGCT the switch fluorescence ratio was 0.989.
With AAGGGAATAT the switch fluorescence ratio was 0.941.
Sequence AAGGGACCGT has a switch fluorescence ratio of 0.999.
In the case of AAGGGATGTA, the switch fluorescence ratio is reported as 0.989.
AAGGGCAGTC was tested, and the switch fluorescence ratio was 0.991.
Work on AAGGGCCCGG yielded a switch fluorescence ratio of 0.999.
With AAGGGCGAGA the switch fluorescence ratio was 0.981.
Work on AAGGGCGTAA yielded a switch fluorescence ratio of 0.993.
In the case of AAGGGCGTTA, the switch fluorescence ratio is reported as 1.02.
AAGGGGAAGC gave a switch fluorescence ratio of 0.961.
With AAGGGGAGCC the switch fluorescence ratio was 1.01.
AAGGGTA was tested, and the switch fluorescence ratio was 0.966.
AAGGGTAATC showed a switch fluorescence ratio of 1.01.
For AAGGGTACGT, the switch fluorescence ratio was 1.04.
AAGGTAACTT showed a switch fluorescence ratio of 1.01.
For AAGGTACTGG, the switch fluorescence ratio was 1.02.
AAGGTAGCGG gave a switch fluorescence ratio of 0.968.
AAGGTAGCT gave a switch fluorescence ratio of 0.973.
AAGGTCACGG was tested, and the switch fluorescence ratio was 1.02.
With AAGGTCATCG the switch fluorescence ratio was 1.
Sequence AAGGTCCTTA has a switch fluorescence ratio of 0.973.
AAGGTCGTTC gave a switch fluorescence ratio of 1.01.
Sequence AAGGTGCTTC has a switch fluorescence ratio of 1.12.
AAGGTGGAAA was tested, and the switch fluorescence ratio was 0.939.
In the case of AAGGTGGCC, the switch fluorescence ratio is reported as 0.967.
With AAGTAAAAAA the switch fluorescence ratio was 1.13.
With AAGTAACTCA the switch fluorescence ratio was 1.02.
Sequence AAGTACGTTT has a switch fluorescence ratio of 1.17.
In the case of AAGTACTGG, the switch fluorescence ratio is reported as 1.25.
With AAGTAGAAAG the switch fluorescence ratio was 0.977.
With AAGTATCTTC the switch fluorescence ratio was 0.98.
For AAGTATGTTA, the switch fluorescence ratio was 0.986.
AAGTATTGGG gave a switch fluorescence ratio of 1.02.
Sequence AAGTATTGT has a switch fluorescence ratio of 0.992.
For AAGTCACCAA, the switch fluorescence ratio was 1.13.
In the case of AAGTCACCTT, the switch fluorescence ratio is reported as 1.1.
With AAGTCAGACG the switch fluorescence ratio was 1.02.
With AAGTCAGCCC the switch fluorescence ratio was 1.05.
AAGTCAGGTT was tested, and the switch fluorescence ratio was 1.
Work on AAGTCATGCA yielded a switch fluorescence ratio of 0.995.
In the case of AAGTCCTATT, the switch fluorescence ratio is reported as 0.98.
With AAGTCGGGCA the switch fluorescence ratio was 1.01.
In the case of AAGTCTGCG, the switch fluorescence ratio is reported as 1.02.
AAGTCTGGA showed a switch fluorescence ratio of 0.998.
Sequence AAGTGAAAAA has a switch fluorescence ratio of 1.02.
With AAGTGAGCTC the switch fluorescence ratio was 1.02.
Sequence AAGTGATGTT has a switch fluorescence ratio of 1.04.
For AAGTGCACAT, the switch fluorescence ratio was 1.03.
AAGTGCCAAA was tested, and the switch fluorescence ratio was 1.02.
With AAGTGGAGCG the switch fluorescence ratio was 0.968.
In the case of AAGTGGTAA, the switch fluorescence ratio is reported as 0.993.
AAGTGTCCAC showed a switch fluorescence ratio of 1.03.
AAGTGTTGTA was tested, and the switch fluorescence ratio was 1.01.
With AAGTGTTTCA the switch fluorescence ratio was 0.996.
In the case of AAGTTAAACC, the switch fluorescence ratio is reported as 1.08.
Work on AAGTTACACT yielded a switch fluorescence ratio of 0.994.
For AAGTTAGA, the switch fluorescence ratio was 0.995.
AAGTTAGTCT showed a switch fluorescence ratio of 1.07.
In the case of AAGTTCGAGT, the switch fluorescence ratio is reported as 0.955.
Work on AAGTTCTGG yielded a switch fluorescence ratio of 0.936.
For AAGTTCTTAG, the switch fluorescence ratio was 0.969.
AAGTTGGAGC was tested, and the switch fluorescence ratio was 1.06.
AAGTTGTCAC was tested, and the switch fluorescence ratio was 1.01.
For AAGTTTCCCT, the switch fluorescence ratio was 0.994.
AAGTTTCGTA gave a switch fluorescence ratio of 0.977.
Work on AAGTTTTAAC yielded a switch fluorescence ratio of 0.994.
For AATAAAAGTG, the switch fluorescence ratio was 1.09.
Work on AATAACATAC yielded a switch fluorescence ratio of 1.43.
Work on AATAACATCG yielded a switch fluorescence ratio of 0.975.
AATAACCGGA showed a switch fluorescence ratio of 1.03.
In the case of AATAACGGT, the switch fluorescence ratio is reported as 0.997.
Sequence AATAACTTAG has a switch fluorescence ratio of 1.01.
Work on AATAAGAT yielded a switch fluorescence ratio of 1.04.
In the case of AATAAGCGCT, the switch fluorescence ratio is reported as 1.04.
AATAAGCGGG was tested, and the switch fluorescence ratio was 0.988.
AATAAGTTCG showed a switch fluorescence ratio of 0.986.
AATAATATC showed a switch fluorescence ratio of 1.03.
AATACAGCGT was tested, and the switch fluorescence ratio was 0.975.
With AATACATGGT the switch fluorescence ratio was 0.967.
AATACCAGGA gave a switch fluorescence ratio of 1.03.
In the case of AATACCTAC, the switch fluorescence ratio is reported as 1.34.
Sequence AATACGGAG has a switch fluorescence ratio of 0.946.
For AATACGGCCA, the switch fluorescence ratio was 1.06.
For AATACGGCTT, the switch fluorescence ratio was 1.01.
AATACGTAA gave a switch fluorescence ratio of 1.35.
AATACTCCCT gave a switch fluorescence ratio of 1.22.

— the supplement of paper PMC10126150
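Note: ATP exposure 15 min at 22 °C before imaging.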
